Values of other authors in US7605135B2 (priority 2003, dated 2009).

Details: boiling temperature (a typical extraction method); cited from earlier work

baicalin
Thermal stability: Stable at boiling temperature (a typical extraction method) [Han RJ et al.,
